Experimental data: the supplement of paper PMC8674133

Assays:
[1] = target: SARS-CoV-2 Wuhan-Hu-1 spike pseudovirus; assay: pseudovirus neutralization IC50; higher = weaker neutralization
Procedure: (§1)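 Single-round luciferase reporter pseudovirus mixed with antibody dilutions and put on 293T-ACE2 cells for 48 h; signal relative to no-antibody wells, four-parameter fit.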

[2] = target: SARS-CoV-2 Wuhan-Hu-1 spike pseudovirus; assay: pseudovirus neutralization IC90; higher = weaker neutralization
Procedure: as §1

[3] = target: SARS-CoV-2 Wuhan-Hu-1 spike receptor-binding domain; assay: ELISA binding EC50; higher = weaker binding; ELISA of recombinant human antibody on coated antigen, from 10 µg/ml in fourfold dilutions; four-parameter fit.

B1: C2480 (protein)
chain 1: QVQLVQSGGEVQRPGASVKVSCKASGYTFTSYGISWVRQAPGQGLEWMGWISTFEGITNYAQKLQGRVTMTTDTSTSTAYMELGSLRSDDTAVYFCARVTGTYHSDRSGLPGMIYYFDYWGQGTLVTVSS
chain 2: EIVMTQSPATLSVSPGERATLSCRASQSISNNLAWYQQKPGQTPRLLIYGASTRATGIPARFSGSGSGTDFTLTITSLQSEDLAVYYCQQYDDWPPTWTFGQGTKVEIK
[1]
  pseudovirus neutralization IC50: 0.268 µg/mL
[2]
  pseudovirus neutralization IC90: > 1 µg/mL
[3]
  ELISA binding EC50: 0.00309 µg/mL

B2: C1447 (protein)
chain 1: EVQLVESGGGLVQPGGSLRLSCAASGFTFSGYNMNWVRQAPGKGLEWVSYISRRSTAMYYAGSVMGRFTISRNDATNSLYLQMHSLSVEDTAVYYCAREYEGSYGAFDYWGQGTLVTVSS
chain 2: DIQMTQSPSSLSASIGDRVTITCRASQSISTYLNWYQQKPGKAPKLLIYAASDLQSGVPSRFSGSGSGTDFTLTISSLQPEDFATYYCQQSYTLFTFGPGTKVDIK
[1]
  pseudovirus neutralization IC50: 0.00296 µg/mL
[2]
  pseudovirus neutralization IC90: 0.0368 µg/mL
[3]
  ELISA binding EC50: 0.00131 µg/mL

B3: C1448 (protein)
chain 1: QVQLVQSGAEVKKPGASVKVSCKASGYTFTSYGITWVRQAPGQGLEWVGWISTFNGDTNYAQRLQGRVTMTTDTSTSTAYMELRSLRSDDTAVYYCARGPSGSYLDLDYWGQGTLVTVSS
chain 2: EIVLTQSPATLSLSPGERATLSCRASQSVRSYVAWYQQKPGQAPRLLIYDASNRATGIPARFSGSGSGTDFTLTISSLEPEDFAVYYCQQRYNWPPELTFGGGTKVEIK
[1]
  pseudovirus neutralization IC50: > 1 µg/mL
[2]
  pseudovirus neutralization IC90: > 1 µg/mL
[3]
  ELISA binding EC50: 0.00157 µg/mL

B4: C1234 (protein)
chain 1: EVQLVESGGGLVQPGGSLRLSCEASGVIVSSNYMNWVRQAPGKGLEWVSLIYSGGSTYYADSVKGRFTISRDNSKNTLYLQMNSLRAEDTAVYYCARDLQQAGGFDYWGQGILVTVSS
chain 2: DIQMTQSPSSLSASVGDRVTITCQASQDIRNYLNWYQQKPGKAPKLLIYNASNLGRGVPSRFSGSGSGTDFTFTISSLQPEDIATYYCQQYDNLPITFGQGTRLEIK
[1]
  pseudovirus neutralization IC50: 0.0206 µg/mL
[2]
  pseudovirus neutralization IC90: 0.0483 µg/mL
[3]
  ELISA binding EC50: 0.000863 µg/mL

B5: C1235 (protein)
chain 1: QVQLVQSGAEVKKPGSSVKVSCKASGGTFRNYAISWVRQAPGQGLEWMGRIIPITDIANYAQKFEGRVTITADKSTSTAYMELSSLKSEDTAVYYCARQSGVYYDAPAPWGQGTLVTVSS
chain 2: DIQMTQSPSSLSASVGDRVTITCQASQDISNYLNWYQQKPGKAPKLLIYDASNLETGVPSRFSGSGSGTDFTFTISSLQPEDFATYYCQQYDNLPFTFGPGTKVDIK
[1]
  pseudovirus neutralization IC50: > 1 µg/mL
[2]
  pseudovirus neutralization IC90: > 1 µg/mL
[3]
  ELISA binding EC50: > 10 µg/mL

B6: C1446 (protein)
chain 1: EVQLLESGGGLVQPGGSLRLSCAASGFTFSTYAMYWVRQAPGKGLEWVSGISGGGGSTYYADSVKGRFTISRDNSKNTLHLQMKSLRADDTAVYYCAKTLGRSGFLWFGAVFDYWGQGILVTVSS
chain 2: QSALTQPASVSGSPGQSITISCTGTSSDVGGYDYVSWYQHHPGRAPKLMIYDVSNRPSGVSNRFSGSKSGNTASLTISGLQAEDEADYYCSSYTTSSAIFGGGTKLTVL
[1]
  pseudovirus neutralization IC50: > 1 µg/mL
[2]
  pseudovirus neutralization IC90: > 1 µg/mL
[3]
  ELISA binding EC50: 0.00281 µg/mL

B7: C1232 (protein)
chain 1: EVQLVETGGGLIQPGGSLRLSCAVSGFTVSRNYMSWVRQAPGKGLEWVSGIFSGGSTFYADSVQGRFTISRDSSKNTLFLQMDSLRAEDTAVYYCARDLEMAGGFDSWGQGTLVTVSS
chain 2: DIQLTQSPSFLSASVGDRVTITCRASQGISSYLAWYQQKPGKAPKLLIYAASTLQSGVPSRFSGSGSGTEFTLTISSLQPEDFATYYCQHLNSYPSITFGQGTRLEIK
[1]
  pseudovirus neutralization IC50: 0.00826 µg/mL
[2]
  pseudovirus neutralization IC90: 0.0858 µg/mL
[3]
  ELISA binding EC50: 0.00106 µg/mL

B8: C1231 (protein)
chain 1: QVQLVESGGGVVQPGKSLRLSCAASGFTFSNYDMHWVRQAPGKGLEWVAIISSDGSSKFYADSMKGRFSISRDNSRNTLYLQMNSLRPEDTAVYYCARDQDVDTSMVPIFAYWGQGTLVTVSS
chain 2: DIQMTQSPSSLSASVGDRVTITCRASQSISGYLNWYQQKPGKAPKLLIYGASSLQSGVPSRFSGSGSGTDFSLTISSLQPEDFATYYCQQSYSTLALTFGGGTKVEIK
[1]
  pseudovirus neutralization IC50: 0.302 µg/mL
[2]
  pseudovirus neutralization IC90: > 1 µg/mL
[3]
  ELISA binding EC50: 0.00139 µg/mL

B9: C1236 (protein)
chain 1: QVQLVESGGGVVQPGRSLRLSCAASGFTFSSYSMHWVRQAPGKGLEWVAVILYDGSMKLYADSVKGRYTISRDNSKNTLYLQMNSLRPEDTAVYYCARDEGPTVTLFDHWGQGTLVTVSS
chain 2: DIQMTQSPSSLSASVGDRVTITCRASQSINSYLNWYQQKPGKAPKLLIYVTSSLQSGVPLRFSGSGSGTDFTLTISSLQPEDFATYYCQQSYSTPPWTFGQGTKVEIK
[1]
  pseudovirus neutralization IC50: 0.85 µg/mL
[2]
  pseudovirus neutralization IC90: > 1 µg/mL
[3]
  ELISA binding EC50: 0.00131 µg/mL

B10: C1228 (protein)
chain 1: QVQLVESGGGLVKPGGSLRLSCAASGFTFSDYHMSWIRQAPGKGLECISYISRSESTIYDADSVKGRFTSSRDNAKNSLYLQMNSLRAEDTAVYYCAREGYSSESFDYWGQGTLVTVSS
chain 2: SYELTQPPSVSVAPGKTARITCGANDIGSKSVHWYQQKPGQAPVLVVYDDSDRPSGIPDRFSGSNSGNTATLTISRVEAGDEADYYCHVWDGSSEHLVLFGGGTKLTVL
[1]
  pseudovirus neutralization IC50: > 1 µg/mL
[2]
  pseudovirus neutralization IC90: > 1 µg/mL
[3]
  ELISA binding EC50: > 10 µg/mL

B11: C1227 (protein)
chain 1: EVQLVESGGGLVQPGGSLRLSCAASGFTFSSYDMHWVRQSTVKGLEWVSVIGTADDTYYPDSVKGRFTISRENAKNSLYLQMNSLRAEDTAVYYCARGVFDSSGFYSSFDYWGQGTLVTVSS
chain 2: DIQMTQSPSSLSASIGDRVTITCRASQSISRYLNWYQQKPGKAPKLLIFAASSLQSGVPSRFSGSGSGTDFTLTISGLQPEDFATYYCQQSYITPGYTFGQGTKLEIK
[1]
  pseudovirus neutralization IC50: 0.979 µg/mL
[2]
  pseudovirus neutralization IC90: > 1 µg/mL
[3]
  ELISA binding EC50: 0.0014 µg/mL

B12: C1224 (protein)
chain 1: QLQLQESGPGLVKPSETLSLTCAVSGDSISSNSFFWGWIRQPPGKGLEWIATISYSGSTYYNPSLKSRVTISVDTSNNQFSLRLSSVTAADTAVYYCARLRWLRGKFDPWGQGTLVTVSS
chain 2: NFMLTQPHSVSGSPGKTVTISCTGSSGSIASNYVQWYQKRPGSSPTTVIYEDNQRPSGVPDRFSGSIDSSSNSASLTISGLKTEDEADYYCQSYDSSIHVVFGGGTKLTVL
[1]
  pseudovirus neutralization IC50: 0.21 µg/mL
[2]
  pseudovirus neutralization IC90: > 1 µg/mL
[3]
  ELISA binding EC50: 0.0016 µg/mL

B13: C1445 (protein)
chain 1: EVQLVESGGDLVQPGGSLRLSCAASGITVSRNYMSWVRQAPGKGLKWVSTIYSGGSTFYADSVKGRFTISRDNSKNTLYLQMNSLRAEDTAVYYCARGAGYYYGMDVWGQGTTVTVSS
chain 2: DIQLTQSPSFLSASIGDRVTITCRASQGISNYLAWYQQKPGKAPKLLIYAASTLQSGVPARFSGTGSGTEFTLTISSLQPEDFATYYCQQLDDNSNFGGGTKVEIK
[1]
  pseudovirus neutralization IC50: 0.0105 µg/mL
[2]
  pseudovirus neutralization IC90: 0.0467 µg/mL
[3]
  ELISA binding EC50: 0.00231 µg/mL

B14: C1221 (protein)
chain 1: QVQLVQSGAEVKKPGASVKVSCKASGYTFTSYYIHWVRQAPGQGLEWMGIINPGGGSTSYAQKFQGRLTMTRDTSTSTVYMELSSLRSEDTAVYYCGRFYDSTGVFDYWGQGTLVTVSS
chain 2: DIQMTQSPSSLSASVGDRVTITCRASQGIRNDLGWYQQKPGKAPKCLIYDASSLQSGVPSRFSGSGSGTEFTLTISSLQPEDFATYYCLQHNSYPFLTFGGGTKVEIK
[1]
  pseudovirus neutralization IC50: 0.00957 µg/mL
[2]
  pseudovirus neutralization IC90: 0.0603 µg/mL
[3]
  ELISA binding EC50: 0.0017 µg/mL

B15: C1223 (protein)
chain 1: QVQLQESGPGLVKPSETLSLTCAVSGGSISGYYWNWIRQPPGKGLEWIGYIYYTGSTNYNPSLKSRVTISLDTSKNRFSLKLSSVTAADTAVYYCARLEWLQGRFDYWGQGTLVTVSS
chain 2: NFMLTQPHSVSESPGKTVIISCTRSSGSIANNYVQWYQQRPGSSPITVIYEDNQRPSGVPDRFSGSIDSSSNSASLTISGLKTEDEADYYCQSYDTSNHVFGGGTKLTVL
[1]
  pseudovirus neutralization IC50: 0.081 µg/mL
[2]
  pseudovirus neutralization IC90: > 1 µg/mL
[3]
  ELISA binding EC50: 0.00143 µg/mL

B16: C1449 (protein)
chain 1: EVQLVESGGGLVQPGGSLRLSCSASGFTFSTYSMNWVRQAPGKGLEYVSGISSNGDIADYADSVKGRFTISRDNSKNTLYLQMSSLRTEDTAVYYCVKDTLDHFTVFDYWGQGTLVTVSS
chain 2: DIQMTQSPSSLSASVGDRVTITCRASQTISRYLNWYQQKPGKAPKLLIYAASSLQSGVPSRFSGSGSGTDFSLTISSLQREDFATYYCQQSYTTPFTFGQGTKLEIK
[1]
  pseudovirus neutralization IC50: > 1 µg/mL
[2]
  pseudovirus neutralization IC90: > 1 µg/mL
[3]
  ELISA binding EC50: 0.00189 µg/mL

Recombinant human monoclonal antibodies (heavy:light variable regions). ELISA EC50 on the named antigen, from 10 µg/ml down; IC50 / IC90 against spike pseudovirus on 293T-ACE2 cells, 48 h; lower = stronger. Calls: IC50 above 1,000 ng/ml = non-neutralizing; EC50 above 2,000 ng/ml = non-binder. The source prints 1000 for neutralization that was not reached; it is given as >1000 ng/ml. A few antibodies were first reported in earlier work of the same group.
